This is an account of results in PubChem BioAssay AID1508624 (National Center for Advancing Translational Sciences (NCATS), 2021).

About 120 (0.25%) of roughly 48,000 compounds were called active. Roughly 4% stayed inconclusive and do not appear here. Calls follow the shape of the dose curve; as a rule, active = well fitted activation curve with a large enough effect; inconclusive = small, poorly fitted or top-dose-only effect, or another doubt; inactive = no such curve, though single readings can be large or run the other way. The list shows a part of the results.

The nature of this experiment: Primary qHTS for Identification of Small Molecule Activators of Huntingtin-Antisense Promoter Activity. Also: nearly all actives have a fitted effect of over 55% in size. The conditions noted are these: HEK293 HTT-AS promoter firefly luciferase reporter, 24 h; series mostly up to 57.5 µM; activity change, positive = activation: at the top concentration. The essentials:
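HEK293 luciferase promoter-reporter cells (2,500/well) plated 24 h, then compounds added at up to 57.5 uM final for 24 h at 37 °C. Firefly luminescence by Dual-Glo, normalized to vehicle (0%) and zero RLU (-100%).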
`O=C(NC1CC(=O)N(c2ccc(F)cc2)C1)C1CCCCC1` (stereo not given): the “activity change, positive = activation” value is inactive: -11%. Regarding `CCOc1cc(/C=C(\C#N)C(=O)Nc2ccccc2C)ccc1OCc1cc(=O)n2nc(CC)sc2n1`, the “activity change, positive = activation” value is inactive: -0.124%.

As for `CCOc1ccc(-c2csc(-c3nc(-c4ccc(Br)s4)cs3)n2)cc1`, the “activity change, positive = activation” value is inactive: -2.39%.

With `Cc1ccc(NC(=O)C2CCN(c3nnc(-n4cccc4)s3)CC2)cc1Cl`, the “activity change, positive = activation” value was inactive: -21.8%.

As for `Cc1nnc(SCC(=O)NCc2ccc(N(C)C)cc2)c2nn(-c3ccccc3)c(C)c12`, the “activity change, positive = activation” value was inactive: -31.7%. In the case of `CNCC(O)c1ccc(O)c(O)c1` (stereo not given) it was inactive: -6.55%; in that of `COc1cccc(C(c2c(O)cc(C)n(Cc3ccco3)c2=O)N2CCC(C)CC2)c1` (stereo not given), inactive: 2.28%. As for `COc1ccc(OC)c2sc(N(Cc3cccnc3)C(=O)c3ccc(C(C)=O)cc3)nc12`, the figure is inactive: -33.6%; as for `COc1ccc(-c2nc(C)c(CCNC(=O)c3cc(OC)c(OC)c(OC)c3)s2)cc1OC`, inactive: 6.84%; as for `CC(NC(=O)C(=O)Nc1c2c(nn1-c1ccccc1)CSC2)c1ccccc1` (stereo not given), inactive: -23.6%. For `Cc1ccc2c(c1)c(=O)c(C(=O)c1ccncc1)cn2CC(=O)Nc1ccc(C(C)C)cc1`, the “activity change, positive = activation” value was inactive: -14.5%. As for `Cc1ccc(N2CC(NC(=O)c3ccc(Br)o3)CC2=O)cc1C` (stereo not given), the figure is inactive: -14.1%; as for `COc1cccc(NC(=O)Cn2nc3c4ccccc4n(Cc4cccc(F)c4)cc-3c2=O)c1`, inactive: -39.1%; as for `Cc1nn(CCC(=O)NCc2ccc(N(C)C)cc2)c(=O)c2nn(-c3ccccc3)c(C)c12`, inactive: -17.2%.

As for `Cc1nnc(N2CCN(c3ccccc3F)CC2)c2c1nnn2Cc1ccccc1Cl`, the “activity change, positive = activation” value is inactive: 11%. With `CC(C)(C)c1ccc(C(=O)Nc2ccc(-c3nc4cc(Cl)ccc4o3)cc2)cc1`, the “activity change, positive = activation” value is inactive: -20.4%. Consider `CCOc1ccc(NCc2cccn2-c2nnc(N3CCC(C(=O)NCc4ccc(C)cc4)CC3)s2)cc1`, for which the “activity change, positive = activation” value is inactive: -52.2%. As for `Cc1c(-c2ccc(O)cc2)n(Cc2ccc(OCCN3CCCCCC3)cc2)c2ccc(O)cc12`, the entry is “inactive”. In the case of `CCc1nnc(NC(=O)CSc2nccn2Cc2ccc(F)cc2)s1` it was inactive: -11.1%; in that of `COc1ccc2nc3oc(C(=O)N(C)c4ccc(Cl)cc4)cc3cc2c1`, inactive: -5.59%. In the case of `COc1ccc(N2CCN(CC(O)COc3ccc(C(C)C)c(C)c3)CC2)cc1` (stereo not given) it was inactive: 14.3% [at 11.5 µM, percent change from vehicle, -100% = no light]; in that of `COC(=O)c1c(NC(=O)c2nc(SCc3ccc(C)cc3)ncc2Cl)sc2c1CCCC2`, inactive: 10.4%; in that of `CCCCCNS(=O)(=O)c1ccc(N2CCCCS2(=O)=O)cc1`, inactive: -21.9%.

Consider `CCCN1C(=O)CN(C2CCCCC2)C(=O)C1c1ccc(OC)c(OC)c1` (stereo not given), for which the “activity change, positive = activation” value was inactive: -8.05%. In the case of `COc1ccc(NC(=O)Cn2c(=O)n(CCC(=O)NCCc3ccc(OC)c(OC)c3)c(=O)c3ccccc32)cc1Cl` it was inactive: -9.11%; in that of `O=C(NC1CC1)c1ccc(Cn2c(SCc3ccccc3F)nc3cccnc32)cc1`, inactive: 16.5%. As for `COc1cccc([C@@H]2Nc3ccc(C(=O)O)cc3[C@@H]3C=CC[C@@H]32)c1OC`, the figure is inactive: -15.9%.

`Cc1ccc2c(=O)cc(C(=O)Nc3ccc(S(=O)(=O)Nc4onc(C)c4C)cc3)oc2c1`: the “activity change, positive = activation” value was inactive: -5.21%. Consider `Cc1cccc(-n2ncc(C(=O)N3CCN(C(=O)c4ccco4)CC3)c2C2CCN(C(=O)OC(C)(C)C)CC2)c1`, for which the “activity change, positive = activation” value was inactive: 8.05%.

In the case of `CCSC1=NC2(CCN(C(=O)NC3CCCCC3)CC2)N=C1c1ccc(C)c(C)c1`, the “activity change, positive = activation” value is inactive: -15.9%. In the case of `CC(C=CC1=C(C)CCCC1(C)C)=CC=CC(C)=CC(=O)O` it was “inactive”; in that of `Cc1noc(C)c1S(=O)(=O)NCCc1csc2nc(-c3ccc(F)cc3)nn12`, inactive: -29.5%. As for `Cc1ccc(NC(=O)[C@H](Cc2ccccc2)N2Cc3ccccc3C2=O)cc1`, the figure is inactive: -12.4%; as for `CCOC(=O)c1c(NC(=O)c2cc3ccccc3c(=O)o2)sc2c1CCCC2`, inactive: -10.6%; as for `COc1ccc(OC)c(NC(=O)CCc2c(C)nc3c(-c4ccccc4)c(C)nn3c2C)c1`, inactive: -29.1%. In the case of `CCCN(CCC)CCNC(=O)c1cc(Sc2ccc(Cl)cc2)nc2ccccc12` it was inactive: -8.4%; in that of `Cc1cccc(CSCCNC(=O)CN(c2ccccc2)S(=O)(=O)N(C)C)c1`, inactive: -15.1%. With `Cc1ccc(S(=O)(=O)c2cn(CC(=O)Nc3ccc4c(c3)OCO4)c3ccc(F)cc3c2=O)cc1`, the “activity change, positive = activation” value was inactive: -5.18%. As for `CC(=O)Nc1ccccc1-c1nc2ccccc2n(C(C)C(=O)c2ccc(C)c(C)c2)c1=O` (stereo not given), the figure is inactive: -18.4%; as for `CCOc1ccc(CC(=O)NC2CC(=O)N(c3ccc4c(c3)OCCO4)C2)cc1` (stereo not given), inactive: -12.6%. As for `C=Cc1c(C)c2cc3nc(cc4[nH]c(cc5nc(cc1[nH]2)C(C)=C5CCC(=O)O)c(CCC(=O)OC)c4C)[C@@]1(C)C3=CC=C(C(=O)OC)[C@H]1C(=O)OC`, the figure is inactive: -35.4%.

For the compound `CCN(c1ccccc1)S(=O)(=O)c1nnc(NC(=O)COc2ccccc2F)s1`, the “activity change, positive = activation” value is inactive: -27.8%.

`NC[C@H]1O[C@H](O[C@H]2[C@H](O[C@@H]3O[C@H](CO)[C@@H](O)[C@H]3O)C(O)[C@H](N)C[C@@H]2N)[C@H](N)[C@@H](O)[C@@H]1O` (stereo not given in full): the activity change, positive = activation is inactive: -3.51% [at 11.5 µM, percent change from vehicle, -100% = no light]. As for `COc1ccc(CNC(=O)C(=O)NCC(c2cccnc2)N2CCN(c3ccccc3F)CC2)cc1` (stereo not given), the figure is inactive: -47.9%; as for `COc1ccc(-c2[nH]ncc2C(=O)NCc2ccccc2OC)cc1`, inactive: -10.2%.
